# Test results from PubChem BioAssay AID485294 (National Center for Advancing Translational Sciences (NCATS), 2010).
# Screen size: about 370,000 compounds; about 150 (0.041%) were called active. The shares of active, inactive and inconclusive entries below differ from those in the screen. Calls follow the shape of the dose curve; as a rule, active = well fitted inhibition curve with a large enough effect; inconclusive = small, poorly fitted or top-dose-only effect; inactive = flat fitted curve, though single readings scatter. Potencies of inconclusive entries are left out as doubtful fits.
# Biological target: Beta-lactamase (Escherichia coli (strain K12)) (UniProt P00811)
# UniProt P00811, sequence (P00811 whole entry, looked up): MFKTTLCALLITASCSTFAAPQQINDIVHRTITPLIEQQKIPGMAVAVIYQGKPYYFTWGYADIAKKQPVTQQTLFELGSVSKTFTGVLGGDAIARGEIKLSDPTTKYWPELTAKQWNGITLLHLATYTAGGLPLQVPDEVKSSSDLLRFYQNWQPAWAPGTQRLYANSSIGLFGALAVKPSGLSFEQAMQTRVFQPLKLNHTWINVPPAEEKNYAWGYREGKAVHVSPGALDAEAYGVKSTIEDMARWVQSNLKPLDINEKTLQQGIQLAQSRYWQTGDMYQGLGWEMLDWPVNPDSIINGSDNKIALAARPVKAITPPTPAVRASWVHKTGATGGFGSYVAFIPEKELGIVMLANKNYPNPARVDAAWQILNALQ
# Experiment: qHTS Inhibitors of AmpC Beta-Lactamase (assay with detergent); also: nearly all actives have a fitted effect of over 25% in size;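 as to activity change, negative = inhibition: 0% = no-compound wells and -100% = no-enzyme wells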
# Settings: AmpC hydrolysis of nitrocefin, absorbance 480 nm, 0.01% Triton; activity change, negative = inhibition: at 114 µM (top of the series)
# In short: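 20 mM phosphate pH 7.0 + 0.01% (detergent screen) or 0.0001% Triton X-100; 5.3 nM AmpC reagent; cpd preinc 15 min RT; nitrocefin (800 uM stock) to start; A480 q20 s × 4 min; Activity was normalised to no-enzyme and no-compound control wells.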
# Potency is read from the fitted curve at half-maximal effect; tags tell the direction and shape of the fitted curve.
Structure (SMILES),"activity change, negative = inhibition",Potency
CC(=O)N1CCc2cc(S(=O)(=O)NCc3ccc(C)cc3)ccc21,inactive: -0.649%,–
CCCCC(=O)N1CCN(c2nc3ccc(F)cc3s2)CC1,inactive: -9.91%,–
CC(=O)c1cc(-c2ccccc2)n(CC(=O)N2CCC(C)CC2)c1C,–,"inconclusive [inhibitor, full curve, poor fit]"
C=CCOc1ccccc1CNc1ccc2c(c1)OCCO2,inactive: -4.82%,–
COC(=O)[C@@]12CCCCN1[C@H](c1ccc(-c3ccccc3)cc1)[C@@H]1C(=O)N(C)C(=O)[C@@H]12,–,"inconclusive [inhibitor, partial curve]"
CC(CCCC(C)(C)O)NCCO (centres undefined),inactive: -4.22%,–
CN(C)c1nc(OCCOC(=O)Nc2ccc(Cl)cc2Cl)nc(N(C)C)n1,–,"inconclusive [inhibitor, full curve]"
COC(=O)C1=CN(c2cccc(Cl)c2)C=C(C(=O)OC)C1c1cccc(OC)c1,–,"inconclusive [inhibitor, full curve, poor fit]"
CCNC(=S)N(Cc1cccs1)Cc1cc2cc(OCC)ccc2[nH]c1=O,–,"inconclusive [inhibitor, single point]"
Cc1ccc(CN2CC(C(=O)N3CCN(c4ccccc4O)CC3)CC2=O)cc1 (centres undefined),–,"inconclusive [inhibitor, full curve, poor fit]"
COCCNC(=O)/C(C#N)=C\c1ccc(CNC(=O)C(=O)Nc2ccc(C)c(C)c2)o1,inactive: 3.54%,–
Cc1c(-c2ccccc2)[nH]n2c(=O)c3c(nc12)CCCC3,–,"inconclusive [inhibitor, partial curve]"
O=S(=O)(NCc1ccccc1)c1cccc2nonc12,–,"inconclusive [inhibitor, partial curve, poor fit]"
COC(=O)c1ccccc1NC(=O)COC(=O)/C=C/c1ccco1,–,"inconclusive [inhibitor, partial curve, poor fit]"
COc1ccc(C(Nc2ccccn2)c2c(NC(=O)c3ccco3)sc(C)c2C)cc1OC (centres undefined),–,"inconclusive [inhibitor, full curve, poor fit]"
CCOc1ccccc1C(=O)Nc1cc(=O)n(C)c(=O)n1C,–,"inconclusive [inhibitor, partial curve, poor fit]"
Cc1cccc(CNC(=O)c2ccc3nc(Cc4ccccc4F)oc3c2)n1,inactive: 1.61%,–
CC1CCc2c(sc(NC(=O)Cn3nc(C(=O)O)c4ccccc4c3=O)c2C#N)C1 (centres undefined),–,"inconclusive [inhibitor, full curve, poor fit]"
COc1ccc(C2SCCN2C(=O)c2ccc([N+](=O)[O-])cc2)cc1 (centres undefined),–,"inconclusive [inhibitor, partial curve]"
CC(C)(C)C(=O)NC1=NCCS1,–,"inconclusive [inhibitor, partial curve, poor fit]"
COc1ccc(CNC(=O)CN(c2ccc(C)cc2)S(=O)(=O)c2c(C)noc2C)cc1,–,inactive
COc1ccc(CNC(=O)C(CCSC)NS(=O)(=O)c2ccc3c(c2)oc(=O)n3C)cc1 (centres undefined),inactive: 14%,–

Structure (SMILES),"activity change, negative = inhibition",Potency
O=C(Cn1cc2c(n1)CCCCC2)N1CCc2ccccc21,–,"inconclusive [inhibitor, full curve, poor fit]"
COc1ccccc1NS(=O)(=O)c1cccc(C(=O)NCC2(N(C)C)CCCCC2)c1,–,"inconclusive [inhibitor, full curve, poor fit]"
COc1ccc(OC)c(CC(NC(C)=O)C(=O)NC2CCN(c3nc(C)cc(C)c3C#N)CC2)c1 (centres undefined),–,"inconclusive [inhibitor, full curve, poor fit]"
Cc1ccccc1CSCC(=O)NC(=O)NC(C)(C)C,–,"inconclusive [inhibitor, partial curve, poor fit]"
O=C(Nc1nc2n(n1)C(c1ccccc1)C=C(c1ccccc1)N2)c1ccccc1 (centres undefined),inactive: -8.03%,–
COc1ccc(S(=O)(=O)NCC2CCCN(C(=O)CCC(F)(F)F)C2)cc1 (centres undefined),–,"inconclusive [inhibitor, full curve, poor fit]"
O=S(=O)(c1ccccc1)c1nc(-c2ccccc2)oc1N1CCOCC1,inactive: 2.07%,–
COc1cc(Cl)c(C)cc1NC(=O)CCc1c(C)nc2c3cccnc3nn2c1C,inactive: 8.33%,–
O=C1CC(c2ccco2)Cc2nc(N3CCc4ccccc4C3)ncc21 (centres undefined),–,"inconclusive [inhibitor, partial curve, poor fit]"
O=C(Nc1cccc(C(=O)O)c1)Nc1ccc2c(c1)OCO2,–,"inconclusive [inhibitor, full curve, poor fit]"
CC1=Nc2ccccc2N=C(NC(=O)CN2CCN(c3ccc(F)cc3)CC2)C1c1ccccc1 (centres undefined),inactive: 8.06%,–
COc1ccc(C(=O)C(c2ccccc2)N2CCOCC2)cc1 (centres undefined),–,"inconclusive [inhibitor, full curve]"
N#CCc1nc2ccc(S(=O)(=O)N3CCOCC3)cc2s1,inactive: -3.36%,–
Cc1ccc(OCCCCn2cnc3ccccc32)cc1,–,inactive
Cc1ccnc(N/C=C(/NC(=O)c2ccccc2)C(=O)N/N=C\c2ccc(F)cc2)n1,–,"inconclusive [inhibitor, partial curve, poor fit]"
COc1ccc(CNC(=O)CN(C(=O)c2ccc(CN3CCOCC3)o2)C2CCCC2)cc1,–,"inconclusive [inhibitor, single point]"
CS(=O)(=O)n1nc(C(=O)N2CCOCC2)nc1N,–,"inconclusive [inhibitor, partial curve, poor fit]"
CCCOP(=O)(c1ccc(N(C)C)cc1)C(O)c1ccccc1OC (centres undefined),–,"inconclusive [inhibitor, partial curve, poor fit]"
N#Cc1cccc(NC(=O)Cn2c3[n+](c4ccc(C(F)(F)F)cc42)CCCCC3)c1,–,"inconclusive [inhibitor, full curve, poor fit]"
COC(=O)Cc1nnc(SCC(=O)Nc2ccccc2)c2ccccc12,inactive: -2.62%,–
CN(C)c1ccc(C=Nc2ccc(N(C)C)cc2)cc1,–,"inconclusive [inhibitor, full curve]"
Cc1cc(NC(=O)Nc2ccccc2[N+](=O)[O-])no1,–,"inconclusive [inhibitor, full curve, poor fit]"

Structure (SMILES),"activity change, negative = inhibition",Potency
[O-][N+]1=c2ccc(Nc3ccccc3)cc2=NC12CCCCC2,–,"inconclusive [inhibitor, partial curve]"
NC(=O)c1ccccc1OCC(=O)c1ccc(Cl)cc1,–,"inconclusive [inhibitor, partial curve, poor fit]"
CO[C@H]1/C=C/O[C@@]2(C)Oc3c(C)c(O)c4c(O)c(c(C=NN5CCN(C)CC5)c(O)c4c3C2=O)NC(=O)/C(C)=C\C=C\[C@H](C)[C@H](O)[C@@H](C)[C@@H](O)[C@@H](C)[C@H](OC(C)=O)[C@@H]1C,–,"inconclusive [inhibitor, full curve, poor fit]"
COCCNC(=O)C(c1ccco1)N(C(=O)Cn1nnc2ccccc21)c1cc(C)ccc1C (centres undefined),–,"inconclusive [inhibitor, full curve, poor fit]"
Cc1ncoc1C(=O)N1CCCC(C(=O)Nc2cccc(-c3ccc(F)cc3)c2)C1 (centres undefined),–,"inconclusive [inhibitor, single point]"
COc1ccc2[nH]c(=O)c(CN(C(=O)c3ccco3)C(C)C)cc2c1,inactive: -10.4%,–
CCOc1ccc(NS(=O)(=O)c2ccc(NC(=S)NC(=O)CC(C)C)cc2)cc1,inactive: -12.3%,–
CC1(C)CC(=O)c2c(O)cc(OCC(=O)Nc3ccc(CCO)cc3)cc2O1,–,"inconclusive [inhibitor, full curve, poor fit]"
COc1ccc(NS(=O)(=O)c2cccc(C(=O)NNC(=O)NCCCl)c2)cc1,–,"inconclusive [inhibitor, single point]"
CS(=O)(=O)c1ccc2nc(NC(=O)CC3CCCC3)sc2c1,–,"inconclusive [inhibitor, partial curve, poor fit]"
CCCN(CCC)CCNC(=O)CN1C(=O)COc2ccc(S(=O)(=O)N3CCOCC3)cc21,–,"inconclusive [inhibitor, single point]"
CC(=O)c1ccc(NS(=O)(=O)c2cc3c(cc2C)N(C(C)=O)CCO3)cc1,–,"inconclusive [inhibitor, partial curve, poor fit]"
COc1ccc(C(=O)NCCSCc2cccc(Cl)c2)cc1OC,–,"inconclusive [inhibitor, full curve]"
COC(=O)c1ccccc1NC(=O)C1CCCCC1C(=O)O (centres undefined),–,"inconclusive [inhibitor, full curve, poor fit]"
COc1cccc(CC(=O)Nc2nc(-c3ccc(F)c(F)c3)cs2)c1,–,"inconclusive [inhibitor, partial curve]"
CCOc1cc(/C=C2\NC(=O)NC2=O)ccc1OC(C)C(=O)O (centres undefined),–,"inconclusive [inhibitor, full curve, poor fit]"
CN=C(Nc1cc(C)nn1-c1ccccc1)c1ccccc1F,–,"inconclusive [inhibitor, full curve, poor fit]"
COc1ccc(Cn2c(C)nc3oc4cc(OC)ccc4c(=O)c3c2=O)cc1,–,"inconclusive [inhibitor, full curve, poor fit]"
CCCCC(NC(=O)c1ccc(Cl)cc1)C(=O)O (centres undefined),–,"inconclusive [inhibitor, full curve, poor fit]"
C/C(=N/NC(=O)CNC(=O)c1cccs1)c1ccco1,inactive: -4.53%,–
